# Reference: the supplement of paper PMC4604168 (melanoma cell lines)
# Some of the results follow. Repeats are few or missing, and single values can be far off.
# Key:
# Test in all cases: cell count relative to DMSO control; melanoma cells; higher = more viable cells
# Settings in all cases: library dose: low library concentration; 72 h
# WM115 = tested on: WM115
# WM1716 = tested on: WM1716
# WM1745 = tested on: WM1745
# WM3526 = tested on: WM3526
# WM3619 = tested on: WM3619
# WM451Lu = tested on: WM451Lu
# 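Note: cell number obtained by counting DAPI-stained nuclei in high-throughput microscope images with image analysis software, screen run in 1,536-well plates.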
Compound,cell count (WM115) [%],cell count (WM1716) [%],cell count (WM1745) [%],cell count (WM3526) [%],cell count (WM3619) [%],cell count (WM451Lu) [%]
"CCCCCCCCc1ccc(CCC(N)(CO)CO)cc1 [fingolimod] + Nc1ncn([C@H]2C[C@H](O)[C@@H](CO)O2)c(=O)n1 [decitabine] (first compound 2 µM, partner dose 0.1 µM)",82.1,60.4,78.4,74.4,80.2,80.5
"NC(=O)c1ccc(N(C(N)=O)c2c(F)cccc2F)nc1-c1ccc(F)cc1F + COCC[n+]1c2c(n(Cc3cnccn3)c1C)C(=O)c1ccccc1C2=O [YM155] (first compound 0.4 µM, partner dose 0.0004 µM)",99.2,118,118,104,98.1,74.1
"Cc1ccc(NC(=O)c2cccc(N(C)C)c2)cc1NC(=O)c1ccc(O)cc1 + COc1ccc(COc2ccc(Cc3cnc(N)nc3N)cc2OC)cc1 [GW2580] (first compound 2 µM, partner dose 1 µM)",91,100,84,98.1,126,96.2
"CCCCCCCCc1ccc(CCC(N)(CO)CO)cc1 [fingolimod] + CS(=O)(=O)CCNCc1ccc(-c2ccc3ncnc(Nc4ccc(OCc5cccc(F)c5)c(Cl)c4)c3c2)o1 [lapatinib] (first compound 2 µM, partner dose 0.8 µM)",98,99,83.5,87.6,100,93.2
"CN(NC(=O)CC(=O)NN(C)C(=S)c1ccccc1)C(=S)c1ccccc1 + COc1cc(N2CCC(N3CCN(C)CC3)CC2)ccc1Nc1ncc(Cl)c(Nc2ccccc2S(=O)(=O)C(C)C)n1 [NVP-TAE684] (first compound 0.006 µM, partner dose 0.08 µM)",78.2,77.1,50.7,101,67.3,113
